# Test results: PubChem BioAssay AID1508623 (National Center for Advancing Translational Sciences (NCATS), 2021)
# In all, about 48,000 compounds went through this assay and about 450 (0.94%) were called active. Not shown: some 19% with an inconclusive outcome. The call rests on the fitted dose curve; in most records, active means well fitted inhibition curve with a large enough effect; inconclusive means small, poorly fitted or top-dose-only effect; inactive means no such curve, though single readings can be large or run the other way. This is one part of the list.
# Test: Primary qHTS for Identification of Small Molecule Inhibitors of Huntingtin Promoter Activity; further: nearly all actives have a fitted effect of over 50% in size
# Conditions: HEK293 HTT promoter firefly luciferase reporter (activity 0% = vehicle and -100% = no light), 24 h; series mostly up to 57.5 µM; activity change, negative = inhibition: at the top concentration
# Text: Assay Provider: Russell L. Margolis M.D.
# Department Neurology, Johns Hopkins University School of Medicine, Baltimore, MD
# Huntington's Disease (HD) is a neurodegenerative disorder caused by a CAG repeat expansion in exon 1 of huntingtin (HTT). While there are currently no disease-modifying treatments for HD, recent efforts have focused on development of nucleotide-based therapeutics to lower HTT expression. As an alternative to siRNA or oligonucleotide methods, we hypothesized that suppression of HTT expression might be accomplished by small molecules that either (1) directly decrease HTT expression by suppressing HTT promoter activity or (2) indirectly decrease HTT expression by increasing the promoter activity of HTT-AS, the gene antisense to HTT that appears to inhibit expression of HTT.
# We developed and employed a high throughput screen for modifiers of HTT and HTT-AS promoter activity using luminescent reporter HEK293 cells; of the 52,041 compounds tested, we identified 898 replicable hits. We used a rigorous stepwise approach to assess compound toxicity and the capacity of the compounds to specifically lower huntingtin protein in 5 different cell lines, including HEK293 cells, HD lymphoblastoid cells, mouse primary neurons, HD iPSCs differentiated into cortical-like neurons, and HD hESCs. We found no compounds which were able to lower huntingtin without lowering cell viability in all assays, though the potential efficacy of a few compounds at non-toxic doses could not be excluded.
# SEQUENCE No. (1, 2, 3, etc.); […] (e.g., Cells, Incubation, Reagent, etc.); VALUE and DESCRIPTION.
# 1; Reagent; 4 uL; 2,500 Hek293 luciferase reporter cells per wells
# 3; Compound; 23 nL; Control inhibitor / compound library
# 5; Reagent; 2.5 uL; Firefly Luc reagent; Dual-Glo Luciferase Reporter Assay System (Promega)
# 6; Time; 10 min; room temperature incubation
# 7; Detection; Luminescence; FLuc
# NOTES (numbers refer to sequence above)
# 1; High-throughput screening, measuring luminescence from a Hek293 luciferase reporter, was performed in 1,536 well white-walled tissue-culture treated plates. 2,500 cells were plated in 4 µL of Opti-MEM per well using a Multidrop Combi Reagent Dispenser (ThermoFisher).
# 2; Assay plates were cultured for 24 hours.
# 3; Control inhibitor (PTC124; final concentration of 50 uM) and compound library (at final concentrations of 460 nM - 57.5 uM) were added to the assay plate using the Kalypsis Pintool Robotic System equipped with 1536 pinheads.
# 4; Cells were then incubated for 24 hours at 37 degrees C prior to luminescence measurements.
# 5; In all cases, luminescence was measured using the Dual-Glo Luciferase Reporter Assay System (Promega) following the manufacturer's instructions.
# 6; Room temperature incubation.
# 7; Luminescence signal was obtained using the PerkinElmer ViewLux plate reader. Results were normalized to vehicle control (0% activity) and zero RLU (-100% activity).
row,SMILES,"activity change, negative = inhibition"
1,CCOc1ccc(CN(CCc2ccc3c(c2)OCO3)Cc2cccc(Br)c2)cc1,inactive: 0.0355%
2,O=C(COc1ccccc1Cl)N1CCN(CCc2ccccn2)CC1,inactive: -8.84%
3,Nc1ccc([N+](=O)[O-])cc1,inactive: -18.2% [at 116 µM]
4,Cc1cccc(OC(C)C(=O)NCC2(N(C)C)CCCCC2)c1C (configuration not stated),inactive: -1.82%
5,Cc1nnc(NC(=O)c2cccn(Cc3ccccc3)c2=O)s1,inactive: 11.4%
6,Cc1nnc2n1-c1sc(CCC(=O)N3CCOCC3)cc1C(c1ccccc1Cl)=NC2,inactive: 1.78%
7,CC(Cc1ccccc1)N(C)Cc1ccco1 (configuration not stated),inactive: 11.3%
8,CN(C)CCc1c[nH]c2ccccc12,inactive: -1.35% [at 222 µM]
9,CC[N+]1(C)CCCC(OC(=O)C(O)(c2ccccc2)c2ccccc2)C1 (configuration not stated),inactive: -1.99%
10,CCCc1nc(SC)ncc1C(=O)Nc1ccc(Cl)cc1C(=O)c1ccccc1,inactive: -10.8%
11,CCOc1ccc(CN(CCc2ccc3c(c2)OCO3)Cc2ccc(CC)cc2)cc1,inactive: -13.6%
12,COP(=S)(OC)Oc1ccc(S(=O)(=O)N(C)C)cc1,inactive: 3.54%
13,CN1C(=O)CN=C(c2ccccc2)c2cc(Cl)ccc21,inactive: 10.7%
14,C[C@]12CC[C@H](O)CC1=CC[C@@H]1[C@@H]2CC[C@]2(C)C(=O)CC[C@@H]12,inactive: -4.28%
15,CC(Cc1ccccc1)NCc1ccccc1Cl (configuration not stated),inactive: 2.49%
16,COc1ccccc1CN1CCN(C(=O)COc2cccc(C)c2)CC1,inactive: -0.562%

row,SMILES,"activity change, negative = inhibition"
1,COc1ccc(NC(=O)CN2C(=O)CN=C(c3ccccc3)c3ccccc32)c(OC)c1,inactive: -4.71%
2,CC[C@@H](CO)NC(=O)[C@@H]1C=C2c3cccc4c3c(cn4C)C[C@H]2N(C)C1,inactive: 12.4%
3,CN1C[C@H](CNC(=O)OCc2ccccc2)C[C@@H]2c3cccc4c3c(cn4C)C[C@H]21,inactive: -20.9%
4,O=[N+]([O-])c1ncc[nH]1,inactive: -6.01%
5,CCCCCCCCCC(=O)O[C@H]1CC[C@H]2[C@@H]3CCC4=CC(=O)CC[C@@H]4[C@H]3CC[C@]12C,inactive: 10.3%
6,CCN[C@H](C)Cc1cccc(C(F)(F)F)c1,inactive: -4.38% [at 116 µM]
7,COc1ccc(C2CC(=O)Oc3c2c(=O)oc2ccccc32)c(OC)c1OC (configuration not stated),inactive: 1.99%
8,COc1ccc(OC)c(CCNCc2c(C(=O)O)c(C)n(Cc3ccc(F)cc3Cl)c2C)c1,inactive: -10.9%
9,CN1CCC(N(Cc2ccccc2)c2ccccc2)CC1,inactive: -15.5%
10,CN[C@@H]1Cc2cccc3[nH]c(=O)n(c23)C1,inactive: -2.69%
11,COc1ccc(NC(=O)CCc2nc(C3=CCN(Cc4cccc(C)c4)CC3)no2)c(OC)c1,inactive: -11.4%
12,Cc1cc(OCC(=O)N2CCN(CCc3ccncc3)CC2)cc(C)c1Cl,inactive: -27.1%
13,O=C1NCN(c2ccccc2)C12CCN(CCCOc1ccc(F)cc1)CC2,inactive: 1.3%
14,CC(C)c1cccc(C(C)C)c1O,inactive
15,Cc1nc(-c2ccc(-c3ccc(C(=O)N4CCc5cc6c(cc54)C4(CCN(C)CC4)CO6)cc3)c(C)c2)no1,inactive: -12%
16,Cc1ccc(CNC(=O)CCCn2c(=O)c3sccc3n(CC(=O)Nc3c(C)cccc3C)c2=O)cc1,inactive: -16.3%
